# Measured values reported in PubChem BioAssay AID463173 (ICCB-Longwood Screening Facility, Harvard Medical School, 2010).
# About 1,700 (3.3%) of roughly 52,000 compounds were called active. Cut-off read from the data, not from the text of the source: active = survival mostly below about 52% (no sharp cut-off); inactive = mostly above about 56%. Some of the results follow.
# Tested on: Wild type
# Assay: growth inhibition of S. aureus wild type versus tarO mutant, primary screen, teichoic acid synthesis inhibitors, RN4220, OD600 (AID 463173)
# Details: S. aureus RN4220 wild type/DeltatarO growth, OD600, 18 h, hits give low values, screened at 18.75 µg/mL (by protocol)
row,Compound,survival
1,COc1ccccc1N1CCN(C(=O)c2ccc3c(c2)N(Cc2ccccc2)C(=O)c2ccccc2S3(=O)=O)CC1,inactive: 94%
2,Cc1cc(C)cc(NC(=O)CSCc2cc(=O)c3cc(Cl)ccc3[nH]2)c1,inactive: 68%
3,Cc1ccc(N2CCN(Cc3nnc(-c4ccc5c(c4)OCO5)o3)CC2)c(C)c1,inactive: 85%
4,Cc1cccc(-c2noc(CN(C(C)C)S(=O)(=O)c3ccc(Br)cc3)n2)c1,inactive: 72%
5,CC1(C)CC(=O)c2cc(-c3nc(-c4ccc(Br)cc4)cs3)c(=O)n(-c3ccccc3)c2C1,inactive: 137%
6,O=C(c1cnc(N2CCOCC2)c2ccccc12)N1CCN(c2ccc(F)cc2)CC1,inactive: 80%
7,Cc1c(-c2nc(-c3ccc4c(c3)[nH]c(=O)n4C)no2)cccc1[N+](=O)[O-],inactive: 73%
8,O=C(NCc1ccccc1)/C(=C/c1ccco1)NC(=O)c1ccco1,inactive: 103%
9,O=C(CSc1nnc(-c2cccs2)o1)Nc1cccc(C(F)(F)F)c1,inactive: 71%
10,Cc1cccc(N2C(=O)CSC23C(=O)N(CC(=O)NCCc2ccccc2)c2ccccc23)c1 (centres undefined),inactive: 119%
11,O=C1c2ccccc2-c2onc3c(Br)cc(NC4CCCCC4)c1c23,inactive: 86%
12,COc1ccc(-c2cc(C(F)(F)F)n3nc(-c4ccc(Cl)cc4)cc3n2)cc1OC,inactive: 58%
13,COCCNC(=O)CSc1nc2cc3c(cc2c(=O)n1CCCCCC(=O)NCCc1ccc(OC)c(OC)c1)OCO3,inactive: 59%
14,Cc1cc2c(cc1S(=O)(=O)CCC(=O)NCc1ccccc1)OCC(=O)N2,inactive: 86%
15,Cc1c(CC(=O)N2CCCCC2)c(=O)oc2c(C)c(O)ccc12,inactive: 85%
16,O=C(Cc1ccccc1)NC1CC(=O)N(c2ccc3c(c2)OCCO3)C1 (centres undefined),inactive: 97%
17,CCN(CC)c1ccc(NC(=O)C(NS(=O)(=O)c2cccs2)C(C)C)c(C)c1 (centres undefined),inactive: 111%
18,O=C(O)CCS(=O)(=O)c1ccc(-c2ccccc2)cc1,inactive: 110%
19,O=C(OCc1ccccc1F)c1ccc(-c2nnn(Cc3ccccc3)n2)cc1,inactive: 121%
20,CCn1nc(-c2ccccc2)c(-c2ccccc2)c(C(=O)Nc2ccccc2C(N)=O)c1=O,inactive: 85%
21,CN(C(=O)c1cnc(N2CCOCC2)c2ccccc12)c1ccccc1F,inactive: 67%
22,Cn1ncc(I)c1C(=O)N1CCc2ccccc2C1,inactive: 108%
23,C=CCNc1sc(C(=O)c2cccs2)c(N)c1C#N,inactive: 105%
24,COc1ccc(-n2nnnc2C2CCN(S(=O)(=O)c3cccc(Cl)c3C)CC2)cc1,inactive: 85%
